# T1: intermediate-affinity hIL-2 receptor (IL-2Rβγ) on TF1+IL-2Rβ cells (human, UniProt P14784 27-551; P31785 23-369)
# T1 sequence 1: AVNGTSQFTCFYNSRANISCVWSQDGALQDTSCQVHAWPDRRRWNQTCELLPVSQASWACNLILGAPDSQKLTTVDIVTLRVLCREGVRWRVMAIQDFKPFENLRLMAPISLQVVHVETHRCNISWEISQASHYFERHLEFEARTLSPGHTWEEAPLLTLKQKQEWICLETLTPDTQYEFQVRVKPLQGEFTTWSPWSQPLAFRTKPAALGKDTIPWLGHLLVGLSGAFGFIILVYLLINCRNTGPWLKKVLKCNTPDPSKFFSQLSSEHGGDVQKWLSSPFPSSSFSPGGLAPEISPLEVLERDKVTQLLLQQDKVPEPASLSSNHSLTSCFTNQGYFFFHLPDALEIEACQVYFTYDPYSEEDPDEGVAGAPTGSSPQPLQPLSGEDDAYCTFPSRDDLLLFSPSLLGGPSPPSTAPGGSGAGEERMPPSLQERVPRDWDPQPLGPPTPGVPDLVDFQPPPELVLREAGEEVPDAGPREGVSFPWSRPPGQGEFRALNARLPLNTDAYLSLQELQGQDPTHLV
# T1 sequence 2: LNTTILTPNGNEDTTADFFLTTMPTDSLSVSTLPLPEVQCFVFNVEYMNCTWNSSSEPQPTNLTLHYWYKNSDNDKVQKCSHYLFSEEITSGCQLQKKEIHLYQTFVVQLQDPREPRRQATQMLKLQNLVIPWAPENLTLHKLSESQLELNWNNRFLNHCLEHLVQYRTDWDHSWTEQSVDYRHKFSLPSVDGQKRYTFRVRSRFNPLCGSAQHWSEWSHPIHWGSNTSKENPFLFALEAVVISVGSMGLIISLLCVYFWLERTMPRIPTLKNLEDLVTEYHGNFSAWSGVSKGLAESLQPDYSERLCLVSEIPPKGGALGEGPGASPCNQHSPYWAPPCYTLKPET
# T2: high-affinity hIL-2 receptor (IL-2Rαβγ) on NK-92 cells (human, UniProt P01589 22-272; P14784 27-551; P31785 23-369)
# T2 sequence 1: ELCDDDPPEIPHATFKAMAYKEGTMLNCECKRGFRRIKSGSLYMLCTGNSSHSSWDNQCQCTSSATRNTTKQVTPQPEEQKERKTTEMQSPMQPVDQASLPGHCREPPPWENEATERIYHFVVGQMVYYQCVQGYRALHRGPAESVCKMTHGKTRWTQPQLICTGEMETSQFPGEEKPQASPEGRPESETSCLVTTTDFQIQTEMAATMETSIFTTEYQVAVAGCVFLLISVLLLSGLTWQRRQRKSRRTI
# T2 sequence 2: T1 sequence 1
# T2 sequence 3: T1 sequence 2
# B1: 1H3-hIgG1-L6-hIL-2 (T3A/D20A/R38E/C125A) (other)
# heavy: EVQLVESGGGLVQPGRSLKLSCAVSGFTFSDYAMAWVRQAPKKGLEWVATISYDGSRTYYRDSVKGRFTISRDNAKITLYLQMDSLRSEDTATYYCARHGSGYFDYWGQGVMVTVSS[not shown - human IgG1 constant region]SGGGGSAPASSSTKKTQLQLEHLLLALQMILNGINNYKNPKLTEMLTFKFYMPKKATELKHLQCLEEELKPLEEVLNLAQSKNFHLRPRDLISNINVIVLELKGSETTFMCEYADETATIVEFLNRWITFAQSIISTLT
# light: DTVLTQSPALAVSPGERVTISCRASESVRTGVHWYQQKPGQQPKLLIYGASNLESGVPARFSGSGSGTDFTLTIDPVEADDTATYFCQQSWNDPFTFGSGTKLEIKRTVAAPSVFIFPPSDEQLKSGTASVVCLLNNFYPREAKVQWKVDNALQSGNSQESVTEQDSKDSTYSLSSTLTLSKADYEKHKVYACEVTHQGLSSPVTKSFNRGEC
# B2: 1H3-hIgG4-L6-hIL-2 (D20Y) (other)
# heavy: EVQLVESGGGLVQPGRSLKLSCAVSGFTFSDYAMAWVRQAPKKGLEWVATISYDGSRTYYRDSVKGRFTISRDNAKITLYLQMDSLRSEDTATYYCARHGSGYFDYWGQGVMVTVSSASTKGPSVFPLAPCSRSTSESTAALGCLVKDYFPEPVTVSWNSGALTSGVHTFPAVLQSSGLYSLSSVVTVPSSSLGTKTYTCNVDHKPSNTKVDKRV[not shown - about 350 residues with a human IgG4 Fc and changes]
# light: B1 light
# B3: 1H3-hIgG4-df-hIL-2 (D20Y) (other)
# heavy: EVQLVESGGGLVQPGRSLKLSCAVSGFTFSDYAMAWVRQAPKKGLEWVATISYDGSRTYYRDSVKGRFTISRDNAKITLYLQMDSLRSEDTATYYCARHGSGYFDYWGQGVMVTVSSASTKGPSVFPLAPCSRSTSESTAALGCLVKDYFPEPVTVSWNSGALTSGVHTFPAVLQSSGLYSLSSVVTVPSSSLGTKTYTCNVDHKPSNTKVDKRV[not shown - about 350 residues with a human IgG4 Fc and changes]
# light: B1 light
# B4: 1H3-hIgG1-df-hIL-2 (D20Y) (other)
# heavy: EVQLVESGGGLVQPGRSLKLSCAVSGFTFSDYAMAWVRQAPKKGLEWVATISYDGSRTYYRDSVKGRFTISRDNAKITLYLQMDSLRSEDTATYYCARHGSGYFDYWGQGVMVTVSS[not shown - about 450 residues with a human IgG1 Fc and changes]
# light: B1 light
# B5: 1H3-hIgG4-df-hIL-2 (D20A/R38E) (other)
# heavy: EVQLVESGGGLVQPGRSLKLSCAVSGFTFSDYAMAWVRQAPKKGLEWVATISYDGSRTYYRDSVKGRFTISRDNAKITLYLQMDSLRSEDTATYYCARHGSGYFDYWGQGVMVTVSSASTKGPSVFPLAPCSRSTSESTAALGCLVKDYFPEPVTVSWNSGALTSGVHTFPAVLQSSGLYSLSSVVTVPSSSLGTKTYTCNVDHKPSNTKVDKRV[not shown - about 350 residues with a human IgG4 Fc and changes]
# light: B1 light
# B6: 1H3-hIgG4-L6-hIL-2 (D20A/R38E) (other)
# heavy: EVQLVESGGGLVQPGRSLKLSCAVSGFTFSDYAMAWVRQAPKKGLEWVATISYDGSRTYYRDSVKGRFTISRDNAKITLYLQMDSLRSEDTATYYCARHGSGYFDYWGQGVMVTVSSASTKGPSVFPLAPCSRSTSESTAALGCLVKDYFPEPVTVSWNSGALTSGVHTFPAVLQSSGLYSLSSVVTVPSSSLGTKTYTCNVDHKPSNTKVDKRV[not shown - about 350 residues with a human IgG4 Fc and changes]
# light: B1 light
# B7: 1H3-hIgG4-df-hIL-2 (D20A/R38E) LC fusion (other)
# heavy: EVQLVESGGGLVQPGRSLKLSCAVSGFTFSDYAMAWVRQAPKKGLEWVATISYDGSRTYYRDSVKGRFTISRDNAKITLYLQMDSLRSEDTATYYCARHGSGYFDYWGQGVMVTVSSASTKGPSVFPLAPCSRSTSESTAALGCLVKDYFPEPVTVSWNSGALTSGVHTFPAVLQSSGLYSLSSVVTVPSSSLGTKTYTCNVDHKPSNTKVDKRV[not shown - human IgG4 Fc with S228P (EU numbers)]
# light: DTVLTQSPALAVSPGERVTISCRASESVRTGVHWYQQKPGQQPKLLIYGASNLESGVPARFSGSGSGTDFTLTIDPVEADDTATYFCQQSWNDPFTFGSGTKLEIKRTVAAPSVFIFPPSDEQLKSGTASVVCLLNNFYPREAKVQWKVDNALQSGNSQESVTEQDSKDSTYSLSSTLTLSKADYEKHKVYACEVTHQGLSSPVTKSFNRGEC[not shown - about 150 residues with changes]
# Target: T1, intermediate-affinity hIL-2 receptor …
# Assay: cell-based or functional assay
row,Binder,Fold decrease from rhIL-2 (TF1 + IL-2Rβ + hPD-1) [fold]
1,B1,1080

# Target: T1, intermediate-affinity hIL-2 receptor …
# Assay: cell-based or functional assay
# Remark: another data set of the same source
row,Binder,Fold change from rhIL-2 (TF1 + IL-2Rβ) [fold]
1,B2,> 10000
2,B3,> 10000
3,B4,> 10000
4,B5,> 10000
5,B6,> 10000
6,B7,> 10000

# Target: T2, high-affinity hIL-2 receptor (IL-2Rαβγ) …
# Assay: cell-based or functional assay
Binder,Fold change from rhIL-2 (NK-92) [fold],Agonistic Activity (NK-92) [%]
B2,> 10000,–
B3,> 10000,60
B4,~8540,90
B5,~868,–
B6,~177,–
B7,> 10000,–

# Reference: US20240076343A1 (CEPHALON, published 2024)
